This note sets out measurements from PubChem BioAssay AID1240 (Sanford-Burnham Center for Chemical Genomics, 2008).

Structures are written as SMILES. Screen size: about 50,000 compounds; about 800 (1.6%) showed an effect of 50% or more. The list shows a part of the results.

The assay concerns the target Bcl-2-like protein 10 (Homo sapiens) (UniProt Q9HD36). Put plainly: TR3 peptide-Bcl-B binding displacers, biochemical primary FP assay, phenotype converters (AID 1240).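 Also: 0% = Bcl-B with tracer peptide and DMSO and 100% = tracer peptide lacking Bcl-B.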 Conditions: GST-Bcl-B / FITC-TR3 peptide fluorescence polarization; stronger effect = higher value; compound at 3.75 mg/L. Background: Polarisation of emitted light reports the rotation of a fluorescent probe.
Chain of UniProt Q9HD36 (Q9HD36 whole entry, looked up): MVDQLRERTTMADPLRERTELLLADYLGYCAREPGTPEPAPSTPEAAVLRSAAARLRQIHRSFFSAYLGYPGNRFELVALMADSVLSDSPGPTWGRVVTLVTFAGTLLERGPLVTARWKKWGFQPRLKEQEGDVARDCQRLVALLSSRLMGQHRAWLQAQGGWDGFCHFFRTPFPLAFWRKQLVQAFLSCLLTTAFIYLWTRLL
As for `CCOc1ccc(C(=O)N2CCN(Cc3ccccc3)CC2)cc1OCC`, the displacement came out at 3%.
The same measure for `COc1ccc(/C=C2\C=C(c3ccc(Cl)cc3)OC2=O)cc1[N+](=O)[O-]`: 36.4%.
As for `Cc1cccc(C(=O)Nc2cc(-c3ccc(F)cc3)[nH]n2)c1`, the figure is 9.1%.
The same measure for `Cc1n[nH]c(C)c1CCC(=O)N/N=C/c1ccc(O)cc1O`: -18.3%; for `O=C(/C=C/c1ccco1)Nc1ncc(Cc2cccc(Cl)c2)s1`: -25.2%; for `Cc1cccc(NC(=O)CSc2nccn2C)c1`: 8.2%.
As to `c1ccc(-c2noc(C(c3ccccc3)c3ccccc3)n2)cc1`, the displacement was 12.7%.
The same measure for `Cc1ccc(S(=O)(=O)Nc2ccc(N3CCOCC3)cc2)cc1[N+](=O)[O-]`: 2.2%.
Turning to `Cc1ccc(C)c(OCCN2CCCCC2)c1`, the displacement came to 3.9%.
As for `Cc1ccc(C)c(NC(=O)/C=C/c2ccc(C)o2)c1`, the figure is 10.2%; as for `Cc1ccccc1NC(=O)CCCC(=O)OCC(F)(F)C(F)F`, 6.4%; as for `CCOc1ccc(N(CC(=O)NCCCOC)S(C)(=O)=O)cc1`, 7.5%.
The same measure for `CC(=O)c1ccc2c(c1)C1C=CCC1C(c1cccc([N+](=O)[O-])c1)N2` (stereo unspecified): 17.4%; for `Cc1onc(-c2ccccc2Cl)c1C(=O)N1C(C)CCCC1C` (stereo unspecified): 0.8%; for `Cc1ccccc1-n1c(C)cc(/C=N/NC(=O)CN2CCOCC2)c1C`: -22.2%.
As for `O=C1/C(=C\c2cn(Cc3ccccc3F)c3ccccc23)SC(=S)N1c1ccc([N+](=O)[O-])cc1`, the figure is 28.7%; as for `N=c1sc(Cc2ccccc2Cl)cn1CC(=O)c1ccc(Br)cc1`, -11.7%.
As to `O=C(Cc1cccs1)Nc1ccc(Br)cc1C(=O)O`, the displacement was 1.1%.
As for `COc1ccc(NC2=CC(c3ccc(OC)cc3)N(c3ccc(OC)cc3)C2=O)cc1` (stereo unspecified), the figure is 0.1%; as for `COCCNC(=O)Cc1ccc(OC)c(OC)c1`, -1.5%; as for `CC(C)(C)C1CCc2c(sc3c2c(=O)n(Cc2ccccc2)c2n[nH]c(=S)n32)C1` (stereo unspecified), -4.7%.
As for `O=C(CN1C(=O)/C(=C/c2ccccc2Cl)SC1=S)Nc1nccs1`, the displacement is -0.2%.
As for `COc1ccc(-c2cc(-c3ccccc3)nc(N/N=C/c3ccc(O)cc3O)n2)cc1OC`, the displacement was -1.2%.
As for `COc1cc(/C=C2/SC(=S)N(Cc3ccccc3)C2=O)cc(Cl)c1OCc1ccccc1`, the figure is 12.4%; as for `C=CCOc1ccc(/C=C2\C(=O)C(C(=O)OC)=C(C)N2c2ccc(C)cc2)cc1`, -24.7%.
As for `C=CCNC(=O)/C=C/c1cc(OC)ccc1OC`, the figure is -9%; as for `Cc1ccccc1C(=O)NN1C(=O)/C(=C\c2cccs2)SC1=S`, -5.1%; as for `O=[N+]([O-])c1ccc(-n2ncnc2-c2ccccc2)cc1`, 5.3%.
The same measure for `O=C1C=C(NCCN2CCOCC2)CC(c2ccccc2)C1` (stereo unspecified): 8.5%.
Regarding `COCCNC(=O)c1ccc(I)cc1`, the displacement amounted to 11.3%.
Regarding `CCC(=O)NCCN=Cc1ccc(Cl)cc1Cl`, the displacement was 7.9%.
As for `CCCCN(CC(O)COc1cccc(OC)c1)S(=O)(=O)O` (stereo unspecified), the figure is 1.3%; as for `Cc1ccc(C(=O)N2CCN(c3ccccn3)CC2)cc1`, -2.9%.
The same measure for `O=c1[nH]c2ccccc2cc1/C=N\Nc1nc(-c2ccccc2)c2cc(Cl)ccc2n1`: 13.7%; for `Fc1ccc(-c2nc(Cc3ccccc3Cl)no2)cc1`: 7.1%.
The same measure for `O=C(COc1ccccc1)NNC(=O)COc1ccc([N+](=O)[O-])cc1`: 7.9%; for `Cc1ccc(-c2nc3sccn3c2NC(=O)c2ccc(Cl)cc2)cc1`: 7.3%; for `CCN(CC)c1ccc(/C=N\N2CCN(c3ccccc3)CC2)c(O)c1`: 25.3%.
Take `O=C(NCc1ccccc1)c1ccc(C#Cc2ccccc2)cc1`: the displacement is -9.5%.
`CCOC(=O)C1=CN(c2ccc(C)c(C)c2)C=C(C(=O)OCC)C1c1cccc(OC)c1`: the displacement turned out to be 9.4%.
As for `N#Cc1c(N)nc2c(c1-c1ccccc1)CCCC2`, the figure is 0.2%; as for `CCN(CC)c1ccc(C=C(C(C)=O)C(C)=O)c(OC(C)=O)c1`, 48.6%.
The same measure for `COC(C#CC(C)(C)N(C)C)(c1ccccc1)c1ccccc1`: -5%; for `Cc1cc(NC(=O)c2ccc(Cl)cc2Cl)ccc1NC(=O)c1ccccc1`: -2.3%.
As for `CC(=O)Nc1ccc(S(=O)(=O)NCc2ccccc2)cc1`, the figure is -2.4%; as for `Cc1cccc(NC(=S)NC(=O)C(C)(C)C)c1C`, 7.2%.
Turning to `O=S(=O)(Nc1ccc2c(c1)OCO2)c1ccccc1`, the displacement is 10.5%.
As for `O=C(CSC1=NCCS1)c1ccc(Cl)cc1`, the displacement was -48.1%.
The same measure for `CCOC(=O)c1ccc(-c2ccc(C(=O)Nc3cccnc3)o2)cc1`: -5.2%; for `O=C1N=C(N=Nc2c(O)[nH]c3ccccc23)S/C1=C/c1ccc(Br)cc1`: 8.9%.
The same measure for `C=CCc1cccc2cc(C(=O)NNC(=O)c3ccc(OC)cc3)c(=O)oc12`: -8.4%; for `COc1ccc(/C=C/C(=O)Nc2nc(-c3ccccc3)cs2)cc1OC`: 11.7%; for `COc1ccc(CNC(=O)C(=O)Nc2cccc(Cl)c2)cc1`: 16.4%.
As for `COc1ccccc1NC(=O)C1=C(C)NC(SCC(=O)Nc2ccc(Br)cc2)=C(C#N)C1c1ccco1` (stereo unspecified), the displacement was 4.8%.
The same measure for `CCOCCOC(=O)c1ccc(NC(=O)c2cc(OC)c(OC)c(OC)c2Br)cc1`: -6%; for `O=C(Nc1nc(-c2ccc(Cl)cc2)cs1)C1CC2CCC1C2` (stereo unspecified): 9.3%; for `Cc1oc2ccc(O)c(CN(C)C)c2c1C(C)O` (stereo unspecified): 10%.
As for `Cc1onc(-c2ccccc2Cl)c1C(=O)Nc1sc(C)c(C)c1C(=O)OC(C)C`, the figure is -6.3%; as for `Cc1cc(N2CCN(C/C=C/c3ccccc3)CC2)n2c(nc3ccccc32)c1C#N`, 29.5%.
As for `CCOc1cc(C2C3=C(CC(C)(C)CC3=O)OC3=C2C(=O)CC(C)(C)C3)ccc1OCc1ccccc1F`, the figure is -8.4%; as for `CC(=O)NC1=C(Cl)C(=O)c2ccccc2C1=O`, 23%; as for `CCc1ccccc1NC(=O)COc1ccc(C)cc1`, 3.4%.
Turning to `COc1ccc(NC(=O)c2ccccc2C)cc1OC`, the displacement is -3.5%.
As for `Oc1ccc(-n2c(O)c(/C=C3\C=Nc4ccccc43)sc2=S)cc1`, the figure is -23.8%.
The same measure for `CCCOC(=O)C1=C(C)N(CC)C(=O)NC1c1ccccc1[N+](=O)[O-]` (stereo unspecified): -12.8%; for `Oc1ccc(/C=N/Nc2nc(-c3ccccc3)cc(-c3ccc(Br)cc3)n2)c(O)c1`: -7.4%.
As for `O=[N+]([O-])c1cc(-n2ncnc2-c2cccc(Cl)c2)ccc1F`, the figure is 14.6%; as for `O=C(N/N=C/c1cc([N+](=O)[O-])ccc1O)Nc1ccccc1`, -6.2%; as for `CCOC(=O)c1ccc(Nc2cc(-c3ccccc3)ncn2)cc1`, -3.5%.
Turning to `COc1cccc(OCCOc2ccc(/C=C3/SC(=S)NC3=O)cc2)c1`, the displacement amounted to 5.1%.
As for `Cc1nc(NC(=O)/C=C/c2ccc(F)cc2)sc1C`, the figure is -4.7%.
